Whole data set: some 33,000 sequences, median “E-score (dimensionless, -0.5 to 0.5)” near -0.058, cut for the highest 2% near 0.35. This is one part of the list.
System: MvaT
Test: PBM 8-mer E-score (mean of HK and ME arrays) (E-score (dimensionless, -0.5 to 0.5)); higher = stronger relative binding preference; most listed sequences are background and not binding sites
Summary of the method: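 Full-length P. aeruginosa MvaT carrying an N-terminal glutathione S-transferase tag was tested by protein binding microarray following a previously described protocol. Two universal double-stranded 60-mer arrays, ME and HK, were used, each with a constant 25-mer primer region and a variable 35-mer region covering all 8-mers. The rank-based E-score is the mean of the two arrays, parsed with a custom script. Its range runs from -0.5 to 0.5 for each 8-mer.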

Sequence | PBM 8-mer E-score
ATTCCAAA | 0.197
TGACCACA | -0.0974
GGCCGGCA | -0.0768
ATTGGGGG | -0.233
AGCCGTAG | -0.193
GCCAGTAA | -0.0282
ACATGTTC | 0.121
ACAATAGA | 0.232
CCATTGTC | 0.0472
AAGTGCGG | -0.0343
CGCGTAAG | -0.0607
CGACACCA | -0.0804
ATTCGCCG | -0.073
CAGCGCCA | -0.301
CAATTATC | 0.264
GTAGCGAA | -0.139
ATTGAGGG | -0.00549
AGGGTTTA | 0.0535
TCTTTAAA | 0.227
CTTCGTTA | 0.0633
CAGGTTAG | -0.252
ATATCTAG | 0.252
CCGCTCCC | -0.366
AGACTCAC | -0.088
ATAAGTAT | 0.356

Sequence | PBM 8-mer E-score
GCGCGTCC | -0.245
AGCCCAGA | -0.208
CCTAGCCG | -0.224
CTAAAAAC | 0.131
ATCACCCC | -0.315
AACTTATC | 0.351
CGTTAAAG | 0.186
CGTGCTTC | -0.0848
CCACGTAG | -0.1
AAACTATG | 0.21
ACGTTAAA | 0.256
CCCTGCGC | -0.267
TCGTGTCA | -0.0596
ACTGATTA | 0.24
GAGACTGC | -0.111
AAGGGGCG | -0.336
AAGACCAA | 0.0721
GCGCTTCA | -0.11
AACCCCCA | -0.248
CATTTCTC | 0.154
TGAGAAAA | 0.166
GCACTGCC | -0.189
ATGTGGTG | 0.122
CGTTATAG | 0.2
GCGGCTCA | -0.298

Sequence | PBM 8-mer E-score
AAACCGAT | 0.0459
CAGCGGCC | -0.16
CGTACTTC | 0.0831
ATAGGCAG | 0.0245
ACATATCG | 0.243
TACCCGAA | -0.0783
CGCACCTA | 0.0274
ACAACAGA | 0.0232
GAGGTTCA | -0.251
GAGCTCAA | -0.146
ATCGGGGA | -0.213
AGCGGATA | 0.113
CGGCTCTC | -0.244
CGGCGCCC | -0.28
GGAATACA | 0.138
ACCAAGAG | -0.187
CTAACAAG | -0.0335
ACGTTCCT | -0.057
GGCTAGAA | -0.0418
ACGCCCCT | -0.292
ACGACCAC | -0.0476
AGAGGCGC | -0.328
AGAGTGAA | -0.0581
CCGACAGA | -0.143
CGCCTCTA | -0.259

Sequence | PBM 8-mer E-score
CGAAGCTA | -0.123
GCAACAAA | 0.249
ACATTACG | 0.137
ATGCTTGC | -0.109
CCCCACAA | -0.318
CTGTACAG | -0.186
AGGATCCT | -0.282
CTTTGGGA | 0.000804
ATCTGCTG | 0.015
ATATGCGA | 0.244
GCGAACAC | -0.0851
TAACTCAA | 0.225
CCTTGCAG | -0.228
GATGACAA | 0.11
AGGCGCTC | -0.23
GGCCTCAC | -0.339
AAACTGTG | -0.0285
CTCACCTC | -0.183
CTCCCCCA | -0.302
CCAGGGGC | -0.357
CATTGTGA | 0.0307
ACGGAGGA | -0.349
CCACATTA | 0.156
CGCGAGTA | 0.0694
AACGACGG | 0.0335

Sequence | PBM 8-mer E-score
CCTCGGGC | -0.184
ACTGACTC | -0.135
GATCCATA | -0.0716
GAGGTTCC | -0.286
CCTCTTGC | -0.0881
CTGAGGTC | -0.412
CAAGTGAC | -0.0568
CTGGGTTA | 0.155
ACCCGGTA | 0.0126
TGCTTGAA | -0.175
GAACGCCA | -0.171
AATTAACC | 0.262
CATAGAGC | -0.176
AATGCACC | -0.137
CTGGAAGC | -0.204
AAAGCTAT | 0.0863
ACATTACA | 0.253
ACCAGTAA | 0.14
AAAGGCCA | -0.0662
AGCAACGC | -0.265
ATAAGAAT | 0.292
ATACGACA | 0.1
AATGCCTA | 0.0154
CGCCAATA | 0.0436
ACTTACCT | 0.112

Sequence | PBM 8-mer E-score
CGACGGCG | -0.209
CTAGGCGC | -0.17
AGTGAGAC | 0.0215
TCATGGGA | -0.0976
GAAGTAAA | 0.155
AGTAGTAT | 0.249
GGACGTAC | -0.138
AACTTGAT | 0.242
CTATACCA | 0.0687
CGAGTCAG | -0.278
CAGCTGAG | -0.163
CACTCCAG | -0.196
ACAGCAGC | -0.0972
GACCATGA | -0.214
CTAGTCGA | -0.122
ACCAGACA | -0.0988
TGAATCCA | 0.084
CTGAACCA | -0.178
CTTTCAGA | -0.0594
AAGGCTGC | -0.172
TGCAGACA | 0.0205
AAAAAGTC | 0.17
AACGACAT | -0.0137
CAACGAGC | -0.147
GTCCAAAA | 0.0635

Sequence | PBM 8-mer E-score
AATCGTGC | -0.0828
GAGGAGCA | -0.388
CGGTCTAA | 0.0875
CGGGCGTA | -0.101
TCTTGACA | 0.0114
ACTAAGTG | 0.0826
GCAAAGCC | -0.238
AAAACTAG | 0.184
CCAGAACA | 0.0165
ATCGTTTC | 0.0328
GCGTTCTA | -0.0806
AAAGATGG | 0.12
CATTATCC | 0.235
CACGGTAC | 0.0167
CCTGCACC | -0.285
GAAGTATA | 0.263
GAGCATGA | -0.169
AAATAGCC | 0.14
CAGATCCG | -0.177
GGCAGCAC | -0.232
CTTGGAAC | -0.0173
CACAACTG | -0.0536

Reference: the supplement of paper PMC4466236
